Screen size: about 410,000 compounds; about 7,200 (1.8%) were called active. This list was built around the results that the source calls inconclusive (neither active nor inactive); the mix of calls is not that of the screen. Calls come from the whole dose curve; as a rule, active = well fitted activation curve with a large enough effect; inconclusive = small, poorly fitted or top-dose-only effect, or another doubt; inactive = no such curve, though single readings can be large or run the other way. No potency is given beside an inconclusive call; the fits are too rough.
Assay: qHTS of TDP-43 Inhibitors; note: nearly all actives have a fitted effect of over 50% in size
Settings: TDP-43 expressing yeast growth rescue, BacTiter-Glo, 24 h; series mostly up to 46.1 µM
Method in brief: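 Luminescence from BacTiter-Glo reports growth of TDP-43-expressing yeast after 24 hr at 30 deg C with compound. Cells were raffinose-pregrown to mid-log, then seeded in galactose medium at OD600=0.02.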
Potency is the fitted concentration of half-maximal effect; tags give direction and shape of the fitted curve.

| SMILES | Potency |
| --- | --- |
| Cc1cc(C)cc(C(=O)O/N=C(\N)c2ccc(Br)cc2)c1 | active: 35.5 µM |
| Cc1ccccc1C(=O)N1CCN=C1SCc1ccc([N+](=O)[O-])cc1 | inconclusive [activator, partial curve] |
| COc1ccc(C(O)c2nc(-c3cnn(C)c3)cs2)cc1 (configuration not stated) | inconclusive [activator, partial curve] |
| COc1ccc(Nc2nc(-c3cccs3)nc3ccccc23)cc1 | inconclusive [activator, full curve, poor fit] |
| Cc1cc(C(=O)c2ccccc2)cc(C)c1O | inconclusive [activator, single point] |
| CC(=O)c1sc(=S)n(Cc2ccccc2)c1C | active: 12.6 µM |
| O=C(Nc1ccccc1)N1CCN(c2nc(-c3ccccc3)ns2)CC1 | active: 11.2 µM |
| CC(C)(C)Cc1c(-c2ccc(Br)cc2)nc2ccc(Cl)cn12 | inconclusive [activator, single point] |
| O=C(CSc1nnc(CNc2ccc(F)cc2)o1)N1CCCc2ccccc21 | inconclusive [activator, single point] |
| C[C@@H]1COC(=O)[C@H](NC(=O)OCC2c3ccccc3-c3ccccc32)C/C=C\C[C@@H](CC(=O)N(CCO)Cc2ccccc2)C(=O)N1 | inactive |
| COc1cc(-c2ccno2)ccc1S(=O)(=O)N1CCN(c2ccccc2)CC1 | active: 11.2 µM |
| COc1ccc(C(=O)NCCOc2cccc(Oc3ccccc3)c2)cc1OC | inconclusive [activator, single point] |
| CN(C)CCN[C@H]1CCC2C3CC=C4C[C@@H](O)CC[C@]4(C)C3CC[C@@]21C (some centres not stated) | inconclusive [activator, single point] |
| CCCS(=O)(=O)C(=C1Nc2ccccc2N1)S(=O)(=O)CCC | inconclusive [activator, partial curve] |
| Cc1cc(Nc2ccc(Cl)cc2)n(-c2cccc(Cl)c2)n1 | active: 22.4 µM |
| O=C(NCC1CCCO1)C(c1cccs1)N(C(=O)c1ccc(-c2ccccc2)[nH]1)C1CCCC1 (configuration not stated) | inactive |
| CCc1nnc(SC(CC)C(=O)Nc2cc(C)ccc2C)c2cc3occc3n12 (configuration not stated) | inactive |
| Cc1cccc(CNC(=O)c2sc(=O)n(Cc3ccccc3C)c2C)c1 | inactive |
| CCOC(=O)Cc1csc(NC(=O)c2ccc(Br)o2)n1 | inconclusive [activator, single point] |
| Cc1ccc(C(=O)CC2(O)C(=O)N(Cc3ccc4c(c3)OCO4)c3ccccc32)cc1 (configuration not stated) | inactive |
| CC(NC(=O)CSc1nc(-c2ccccc2F)nc2cc(=O)[nH]n12)c1nc2ccccc2n1C (configuration not stated) | inactive |
| O=C(Nc1cccc(OC(F)(F)F)c1)c1cccc2c(-c3cccnc3)coc12 | active: 31.6 µM |
| Cc1ccc(NC(=O)c2c(C)oc3ncn(CC(C)C)c(=O)c23)nc1 | inactive |
| S=c1[nH]ccc2ccccc12 | inconclusive [activator, single point] |

| SMILES | Potency |
| --- | --- |
| CNc1cncc(-c2cc(OC)c(OC)c(OC)c2)n1 | inconclusive [activator, partial curve] |
| Cc1ccc(/C=N/NC(=O)c2ccc3nc[nH]c3c2)s1 | inconclusive [activator, partial curve] |
| CC(C)C(=O)Nc1ncc(Cc2cccc(Cl)c2)s1 | active: 17.8 µM |
| CCNc1cc2c(cc1O)CCC1C2CCC2(C)C(O)CCC12 (configuration not stated) | inconclusive [activator, full curve] |
| COc1ccc(OC)c(S(=O)(=O)N2CCN(Cc3nc4ccc(C)cc4o3)CC2)c1 | inconclusive [activator, full curve, poor fit] |
| C/C(=N\NC(=O)COc1ccccc1-c1ccccc1)c1ccccn1 | inconclusive [activator, partial curve] |
| O=S(=O)(NCc1ccccc1)c1ccccc1Br | inconclusive [activator, partial curve] |
| CCN(CC)c1ccc(/C=C(/C#N)c2nc3ccc(C)cc3[nH]2)c(OC(C)C)c1 | inconclusive [activator, single point] |
| CCOC(=O)c1cc(S(=O)(=O)NCc2ccc(OC)cc2)[nH]n1 | inactive |
| N#Cc1cnn2c3c(cnc12)C(=O)N1CCc2ccccc2C1C3 (configuration not stated) | inactive |
| COc1cc(/C=N/Nc2nncn2N)ccc1OCc1c(C)no[n+]1[O-] | inconclusive [activator, partial curve, poor fit] |
| O=C(COc1ccc(-n2cnnn2)cc1)Nc1ccccc1OC(F)F | inactive |
| CC(C)NC(=O)C1(C)CCN1C(=O)c1c(F)cccc1F (configuration not stated) | inactive |
| O=C(CCNS(=O)(=O)c1ccc2c(c1)CCN2C(=O)C1CC1)N1CCN(c2cccc(C(F)(F)F)c2)CC1 | inactive |
| CCOc1ccc2nc(N(Cc3cccnc3)C(C)=O)sc2c1 | inconclusive [activator, single point] |
| COc1cc(S(=O)(=O)NC2CCCCC2)ccc1Cl | inconclusive [activator, single point] |
| COc1ccc(-c2sc3ccccc3c2C#CCO)cc1 | inconclusive [activator, single point] |
| O=S(=O)(Nc1ccc2c(c1)CCC2)c1cccs1 | inconclusive [activator, single point] |
| Cc1cccc(NC(=O)N2CC=C(c3c[nH]c4ccccc34)CC2)c1C | inconclusive [activator, single point] |
| CCC(=O)Nc1ccc(Cl)c(NC(=S)NC(=O)COc2ccccc2)c1 | inconclusive [activator, partial curve] |
| CCCCn1c(N)c(N(CC)C(=O)c2cc(CC)c(C)s2)c(=O)[nH]c1=O | inconclusive [activator, full curve, poor fit] |
| CCCn1ncc2c(Nc3ccc(C)c(C)c3)ncnc21 | active: 11.2 µM |
| C=CCc1cc(C=O)cc(OCC)c1OCc1ccc(Cl)cc1 | inconclusive [activator, partial curve] |
| Cc1sc2ncn(CC(=O)N3CCN(c4ccccc4)CC3)c(=O)c2c1S(=O)(=O)N1CCC(C)CC1 | inactive |

| SMILES | Potency |
| --- | --- |
| COc1ccc2nc(SCCOC(=O)Nc3ccc(Cl)cc3)nc(C)c2c1 | inconclusive [activator, single point] |
| O=C(CSc1nccc(=O)[nH]1)Nc1ccc2ccccc2c1 | inconclusive [activator, full curve] |
| CN1C(=O)c2ccccc2Cc2c(NCc3ccccc3)ncnc21 | inconclusive [activator, partial curve] |
| O=C(COC(=O)Cc1ccc(F)cc1)NC(=O)c1ccccc1 | inconclusive [activator, single point] |
| CC1CCCC(NC(=O)COC(=O)c2ccc(N(C)C)cc2)C1C (configuration not stated) | active: 10 µM |
| COc1ccccc1/C=N/OC(=O)c1ccc(F)cc1 | inconclusive [activator, partial curve] |
| O=c1c2ccccc2[nH]c2ccccc12 | inconclusive [activator, partial curve, poor fit] |
| Cc1ccc(C2=NN(C(=O)CCl)C(c3cccs3)C2)o1 (configuration not stated) | active: 20 µM |
| COc1ccc(CNC(=O)COC(=O)C2CCN(S(=O)(=O)c3ccccc3C(F)(F)F)CC2)cc1 | inconclusive [activator, partial curve] |
| Cc1ccccc1C(=O)O/N=C(\N)c1cccc([N+](=O)[O-])c1 | inconclusive [activator, single point] |
| CCOC(=O)N1CC=C2C(C#N)=C(N)C(C#N)(C#N)[C@H](c3cccs3)C2C1 (some centres not stated) | inactive |
| Cc1nn(C)c(=O)n1-c1ccc(Oc2ccccc2)cc1 | inconclusive [activator, single point] |
| CCOc1ccc2c(c1)c(=O)c(S(=O)(=O)c1ccc(CC)cc1)cn2Cc1cccc(Cl)c1 | inactive |
| CCC(=O)NNc1ncnc2c1cnn2-c1cccc(C)c1 | inconclusive [activator, partial curve, poor fit] |
| COc1ccc(/C=C/C(=O)c2cc3cccc(OC)c3oc2=O)cc1 | inconclusive [activator, partial curve] |
| CC(C)(C)n1nnnc1CN(Cc1ccc(F)cc1)Cc1ccco1 | inconclusive [activator, full curve, poor fit] |
| Cc1ccc2c(c1)c(C)c(C)n2CC(O)Cn1nnc2ccccc21 (configuration not stated) | inconclusive [activator, single point] |
| Cc1ccc(C)c2[nH]c(=O)c(CN(CCN3CCCC3)C(=O)Nc3cccc(Cl)c3)cc12 | inactive |
| Cc1cc(C(=O)CCl)c(C)n1CCc1ccccc1 | active: 10 µM |
| Cc1nn(CC(O)c2ccccc2)c(C)c1Br (configuration not stated) | inconclusive [activator, partial curve] |
| Cc1cccc(-n2nnc(-c3nc(-c4cccs4)no3)c2N)c1 | inactive |
| O=C(Nc1ccc2oc(-c3cccnc3)nc2c1)c1cc2ccccc2o1 | inconclusive [activator, partial curve] |
| CC1(C)CC(=O)C(C=NCCN2CCN(C(=O)c3ccc(Br)cc3)CC2)=C(O)C1 | inconclusive [activator, partial curve] |
| C=C(C)COc1ccc2oc(C)c(C(=O)OCCOC)c2c1 | inconclusive [activator, partial curve, poor fit] |
